About 2,200 (0.71%) of roughly 310,000 compounds showed an effect of 50% or more. The effect is printed as a negative number. This is one part of the list.
These molecules were tested against human ether-à-go-go-related gene (hERG) potassium channel (human, UniProt Q12809) (assay: primary screen, population patch clamp on CHO cells stably expressing hERG).
human ether-à-go-go-related gene (hERG) potassium channel, sequence (Q12809 whole entry, looked up): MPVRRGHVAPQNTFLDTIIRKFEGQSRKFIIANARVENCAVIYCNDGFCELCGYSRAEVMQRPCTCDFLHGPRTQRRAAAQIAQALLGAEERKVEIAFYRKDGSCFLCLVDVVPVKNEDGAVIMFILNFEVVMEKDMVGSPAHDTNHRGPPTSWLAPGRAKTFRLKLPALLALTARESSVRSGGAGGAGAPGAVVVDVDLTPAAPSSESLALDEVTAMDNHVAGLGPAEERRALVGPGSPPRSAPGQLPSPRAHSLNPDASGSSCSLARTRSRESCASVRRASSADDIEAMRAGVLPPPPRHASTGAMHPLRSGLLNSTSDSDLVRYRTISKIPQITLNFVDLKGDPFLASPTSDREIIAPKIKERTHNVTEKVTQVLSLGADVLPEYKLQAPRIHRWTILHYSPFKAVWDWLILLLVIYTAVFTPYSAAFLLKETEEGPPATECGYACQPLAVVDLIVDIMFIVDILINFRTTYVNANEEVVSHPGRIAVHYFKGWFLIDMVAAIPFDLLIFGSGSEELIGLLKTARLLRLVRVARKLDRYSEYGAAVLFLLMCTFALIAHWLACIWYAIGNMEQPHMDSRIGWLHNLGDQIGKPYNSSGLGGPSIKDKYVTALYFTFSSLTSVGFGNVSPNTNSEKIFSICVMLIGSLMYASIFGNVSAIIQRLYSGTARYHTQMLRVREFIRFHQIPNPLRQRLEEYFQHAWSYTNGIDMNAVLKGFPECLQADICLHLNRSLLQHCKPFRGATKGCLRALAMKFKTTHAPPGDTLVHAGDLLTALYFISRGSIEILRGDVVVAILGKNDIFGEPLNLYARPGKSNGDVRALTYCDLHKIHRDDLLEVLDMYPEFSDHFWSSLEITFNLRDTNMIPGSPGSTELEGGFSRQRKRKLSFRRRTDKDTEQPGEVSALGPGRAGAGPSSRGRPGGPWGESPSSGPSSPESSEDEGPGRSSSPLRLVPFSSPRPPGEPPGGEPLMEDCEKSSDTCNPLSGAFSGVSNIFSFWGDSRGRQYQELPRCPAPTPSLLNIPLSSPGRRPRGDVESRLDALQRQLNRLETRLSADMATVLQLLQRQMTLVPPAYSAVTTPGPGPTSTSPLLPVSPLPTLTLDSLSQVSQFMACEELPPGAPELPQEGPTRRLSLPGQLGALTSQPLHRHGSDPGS

Row | SMILES | hERG current change (%, negative = inhibition) at 1uM [%]
1 | COc1ccc(C(=O)Nc2ccc(F)cc2F)cc1OC | 17.7
2 | CC(=O)c1cccc(NC(=O)CN2C(=O)C(=O)N(Cc3ccco3)C2=O)c1 | 8.7
3 | CC(Cc1ccc(Cl)cc1)N1CCC(n2nccc2NC(=O)C2CCCC2)CC1 (stereo not drawn) | -67.5
4 | COc1ccc(/C=N/NC(=O)c2ccncc2)cc1[N+](=O)[O-] | 2.93
5 | CC(C)=CCN1CCN(Cc2cnc(N3CCOCC3)s2)CC1CCO (stereo not drawn) | 13.1
6 | O=C(COC(=O)c1ccc(S(=O)(=O)N2CCCC2)cc1)NCc1ccc(F)cc1 | 8.97
7 | CC(=O)Nc1ccc(NC(=O)CSc2nnnn2-c2ccc3c(c2)OCCO3)cc1 | -0.0583
8 | C/C(=N\NC(=O)c1cc(C(C)C)[nH]n1)c1ccco1 | 5.77
9 | CC(=O)c1ccc(OCC(=O)OCC(=O)Nc2sccc2C(N)=O)cc1 | 8.96
10 | COc1ccc2c(c1)OC[C@H]1[C@H]2N2C(=O)CN(CCc3c[nH]c4ccccc34)C(=O)[C@@]2(C)[C@H]1c1ccccc1 | 18.6
11 | CC(=O)OCCCNc1cc(Sc2ccc(C)cc2)c2nonc2c1[N+](=O)[O-] | 7.9
12 | COc1ccc(C(=O)Nc2ccc(Cl)cc2C(=O)N2CCCC(C)C2)cc1OC (stereo not drawn) | 14
13 | CN1CCN(C(=S)c2cn(Cc3cccc(F)c3)c3ccccc23)CC1 | 9.08
14 | COc1ccc(NC(=O)C2=CC(c3ccco3)=NS(=O)(=O)N2C)cc1 | 6.47
15 | Cc1cc(=O)oc2cc(OCC(=O)N3CCC(O)CC3)c(Cl)cc12 | 19.4
16 | CCC(=O)Nc1nnc(/C=C/c2ccc(OC)cc2)s1 | 14.8
17 | COc1ccccc1Nc1nc(NCCCCO)nc(N2CCCC2)n1 | 2.96
18 | CCc1ccc(C(=O)OCC(=O)NCC(F)(F)F)cc1 | 21.1
19 | Cc1ccc(C(=O)N2CCNC(=O)C2CC(=O)Nc2ccc(F)cc2)cc1C (stereo not drawn) | 11.5

Row | SMILES | hERG current change (%, negative = inhibition) at 1uM [%]
20 | CS(=O)(=O)N(CC(=O)NCc1ccco1)Cc1ccc(Cl)cc1 | -17.7
21 | Cc1cc(=O)[nH]c(-c2cccs2)n1 | 4.84
22 | Cc1ccc(S(=O)(=O)N2CCCN(C(C)c3nc4ccccc4c(=O)[nH]3)CC2)cc1 (stereo not drawn) | -17.1
23 | O=C(Nc1ccccc1Cl)/C(Cl)=C(\Cl)S(=O)c1ccccc1 (stereo not drawn) | 15.9
24 | Cc1c(Cl)c(C(=O)Nc2nc3ccccc3n2CCN2CCCCC2)nn1C | -61.5
25 | CC(=O)Nc1ccc(S(=O)(=O)Nc2nc3ccccc3nc2Nc2ccc(N)cc2)cc1 | 23.9
26 | Cc1ccc(C(=O)Nc2cccc3ccccc23)o1 | 15.3
27 | CC(=O)Nc1ccc(SCC(=O)c2cc(C)ccc2C)cc1 | 10.7
28 | O=C(CC1SC(=Nc2cccc3ccccc23)N(Cc2ccccn2)C1=O)Nc1ccccc1Br (stereo not drawn) | 10.8
29 | C=C(C)c1cccc(C(C)(C)NC(=O)Nc2nncs2)c1 | 3
30 | COc1ccc(CNC(=O)C/C(C)=N/NC(=O)c2cc(OC)cc(OC)c2)cc1 | 11.5
31 | CCNc1cc(O)ccc1C | 5.88
32 | O=C(N/N=C/c1ccccc1)c1[nH]c2ccc(Br)cc2c1-c1ccccc1 | 12.8
33 | CCCCOc1ccc(N(CC(=O)NCc2ccco2)C(=O)CCC(=O)Nc2nccs2)cc1 | 13.7
34 | CCn1cc(CN(C)S(=O)(=O)c2cccc([N+](=O)[O-])c2)cn1 | 3.23
35 | CNC(=S)N/N=C/c1ccco1 | 15.3
36 | CCn1c(-c2cc3c(C(F)(F)F)nn(C)c3s2)n[nH]c1=S | 11.7
37 | COc1ccc(NC(=O)N/C=C/c2ccccc2)cc1 | 22.7
38 | Cc1cc(C(=O)CSc2nncs2)c(C)n1Cc1ccco1 | 3.07

Row | SMILES | hERG current change (%, negative = inhibition) at 1uM [%]
39 | COc1ccc(C2C(C(=O)NCc3ccccn3)c3ccccc3C(=O)N2C)cc1OC (stereo not drawn) | 12.4
40 | COc1cccc(CC(=O)OCC(=O)N(C)CC(=O)Nc2ccccc2Cl)c1 | 13.9
41 | CC1=NN(c2ccccc2)C(=O)/C1=C/c1ccc[nH]1 | 7.87
42 | Fc1ccc(F)c(C2=NNC(=NCC3CCCO3)SC2)c1 (stereo not drawn) | 9.19
43 | CC(C)c1ccc2[nH]c(O)c(N=NC(=O)c3cccc(S(=O)(=O)N4CCCCC4)c3)c2c1 | 1.94
44 | COc1ccccc1NS(=O)(=O)c1ccc(-c2cnc(C3CC3)o2)cc1 | 10.2
45 | O=C(Nc1ccc(OC(F)(F)F)cc1)c1[nH]ncc1[N+](=O)[O-] | 6.28
46 | C=CCNC(=O)c1c(Cl)nc(C)c([N+](=O)[O-])c1C | 11.5
47 | COCCCNC(=O)C1CCC(=O)N1Cc1ccccc1Cl (stereo not drawn) | -0.356
48 | CCOc1ccc(/C=c2\sc3nc(-c4ccco4)nn3c2=O)cc1OCC | 9.88
49 | CCOC(=O)C1=NNC(C(=O)c2ccc(Cl)cc2)C1c1ccccc1 (stereo not drawn) | 5.78
50 | COc1ccc(N2CCN(C(c3ccc4ncccc4c3)c3nnnn3C(C)(C)C)CC2)cc1 (stereo not drawn) | -23.1
51 | CCN(C(=O)CCNC(=O)Cn1cnc2ccccc2c1=O)c1ccccc1F | 16.1
52 | COc1cccc(CNC(=O)CCC2CCCN(C(=O)CCc3c(C)noc3C)C2)c1 (stereo not drawn) | 6.27
53 | O=C1NCC(O)=C1C=Nc1ccccc1O | 10.6
54 | CCOc1ccc(Nc2ccnc3cc(Cl)ccc23)cc1 | 3.86
55 | CC(=O)N/C(=N/c1nc(C)cc(C)n1)Nc1ccc(F)cc1F | 12.7
56 | CCOC(=O)C1CCCN(C(=O)c2ccc(CNc3c(N4CCC(C)CC4)c(=O)c3=O)cc2)C1 (stereo not drawn) | 4.45
57 | C=C1CCN(c2ccc(C(=O)NCc3ccc(C)cc3)cc2[N+](=O)[O-])CC1 | 12.5

Source: article PMC4336329 (PLoS ONE, 2015)
